Experimental findings from PubChem BioAssay AID488969 (Vanderbilt High Throughput Screening Facility, 2010) are described below.

Whole data set: some 110,000 compounds, median “z-score” near -0.1, cut for the highest 2% near 2. The list shows a part of the results. The source made the active and inactive calls.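 Rule for the calls: active = z-score in the third read window above 3 or below -3; inactive = the rest.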

The assay addresses Metabotropic glutamate receptor 8 (Rattus norvegicus) (UniProt P70579). Kind of assay: mGluR8 Gi/Go-coupled signaling modulation – cell-based, rat, thallium flux, HTS, primary screen (AID 488969). The conditions noted are these: HEK293 rat mGluR8, GIRK (G protein-gated inwardly rectifying potassium channel) thallium flux, FluoZin2; at 10 µM; stronger effect = higher value; submaximal glutamate (EC20) added with thallium.
UniProt P70579, sequence (P70579 whole entry, looked up): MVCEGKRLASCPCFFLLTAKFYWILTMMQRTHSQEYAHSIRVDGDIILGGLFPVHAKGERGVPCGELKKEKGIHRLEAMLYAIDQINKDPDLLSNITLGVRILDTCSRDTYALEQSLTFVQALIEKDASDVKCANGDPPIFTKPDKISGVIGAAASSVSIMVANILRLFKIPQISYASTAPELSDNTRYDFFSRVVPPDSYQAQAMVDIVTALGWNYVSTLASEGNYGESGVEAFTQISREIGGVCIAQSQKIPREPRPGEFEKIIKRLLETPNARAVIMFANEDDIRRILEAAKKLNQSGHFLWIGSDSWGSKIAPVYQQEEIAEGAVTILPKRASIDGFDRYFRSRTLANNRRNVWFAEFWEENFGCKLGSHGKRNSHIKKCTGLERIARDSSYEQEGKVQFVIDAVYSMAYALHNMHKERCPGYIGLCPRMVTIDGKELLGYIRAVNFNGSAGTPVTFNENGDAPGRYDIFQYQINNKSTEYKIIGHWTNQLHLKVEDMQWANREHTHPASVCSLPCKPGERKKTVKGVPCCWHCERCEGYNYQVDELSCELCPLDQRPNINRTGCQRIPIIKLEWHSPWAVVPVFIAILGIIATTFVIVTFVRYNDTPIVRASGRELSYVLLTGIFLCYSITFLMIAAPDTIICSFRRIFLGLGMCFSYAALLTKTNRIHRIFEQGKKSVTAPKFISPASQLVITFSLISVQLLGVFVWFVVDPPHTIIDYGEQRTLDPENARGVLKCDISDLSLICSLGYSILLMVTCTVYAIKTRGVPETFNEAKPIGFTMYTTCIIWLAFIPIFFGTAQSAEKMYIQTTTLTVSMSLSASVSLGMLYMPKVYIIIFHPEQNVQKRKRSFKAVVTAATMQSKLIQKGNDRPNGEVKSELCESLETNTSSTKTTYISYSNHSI
`COc1ccc(CCNC(=O)Cc2cc(OC)c(OC)cc2[N+](=O)[O-])cc1OC` showed a z-score of -0.376.
Under `O=C(Nc1ccc(N2CCOCC2)cc1)c1ccncc1` stands -0.149; under `CC1=C(C(N)=O)C(c2ccccn2)n2nc(SCc3ccccc3Cl)nc2N1` (stereo unspecified), -1.44; under `CSc1nc(Cl)c(C#N)c(-c2ccc(C)cc2)n1`, -0.547.
The figure for `O=C(c1ccco1)N1CCN(C(=O)C2(S(=O)(=O)c3ccc(Cl)cc3)CC2)CC1` is 0.0993.
As for `COc1cccc(C(=O)NC(=S)Nc2ccc(N3CCCC3)cc2)c1`, the z-score is -0.087.
Under `COc1cc(/C=C/C(=O)N2CCOCC2)ccc1OCc1ccccc1` stands -0.136; under `Cc1ccc(C(=O)N/N=C/C2=Cc3ccccc3OC2C)cc1` (stereo unspecified), active: 3.08; under `O=c1[nH]c2ccsc2c(=O)n1-c1ccc(F)cc1`, -0.0454.
The figure for `Cc1cccc(NC(=S)NNC(=O)CCn2cc(C)cn2)c1` is 0.051; for `CCOc1ccccc1NC(=O)COn1nnc2ccccc21` it is -0.117; for `CC1=C(C)[N+](=O)C2(O)CCCCC2(C)N1[O-]` (stereo unspecified) it is 0.0837.
On to `COc1ccc(/C=N/c2sc3c(c2C#N)CCN(Cc2ccccc2)C3)c(O)c1`, for which the z-score was found to be 0.318.
The figure for `O=C(CNc1ccccc1)c1ccc([N+](=O)[O-])cc1` is -0.572.
Turning to `Cn1c(NCCCN2CCOCC2)nc2c1c(=O)n(Cc1ccc(Cl)cc1Cl)c(=O)n2C`, the z-score is -0.185.
Under `COc1ccc(OC)c(/C=N/N(C)c2ccccc2)c1` stands -0.415.
Under `CN(C)S(=O)(=O)c1ccc(C(=O)Oc2ccccc2)cc1` stands -0.199.
Under `Cc1c(/C=N/NC(=O)C(NC(=O)c2ccc3c(c2)OCO3)C(C)C)c2ccccc2n1C` (stereo unspecified) stands 0.000906; under `Cc1nc(Nc2ccccc2Cl)sc1C(=O)Nc1ccccc1`, -0.241; under `CC(=O)N1CN(S(=O)(=O)c2ccc(C)cc2)CC1C` (stereo unspecified), -0.352.
`Cc1nc(-c2ccccc2)sc1C(=O)CSc1ccccc1` had a z-score of -0.297.
`Cc1c(C(=O)O)[nH]c2c1C(=O)CC(c1ccccc1)C2` (stereo unspecified) registered a z-score of -0.21.
The figure for `CNC(=S)N/N=C/c1ccccc1Cl` is 1.82; for `COc1cc(NC(=O)CCc2nc(-c3cccs3)no2)cc(OC)c1OC` it is 0.311; for `COC(=O)c1ccc(C)c(NS(=O)(=O)c2ccc(NC(C)=O)cc2)c1` it is -0.131.
Under `O=C(c1ccccc1)c1nc[nH]c1C(=O)Nc1ccccc1` stands 1.81; under `Cc1ccc(Cl)cc1N1CCN(C(=O)c2cccc3c(=O)c(C)c(-c4ccccc4)oc23)CC1`, -1.24; under `CCOC(=O)c1ccc(NC(=O)C2(c3ccccc3)CCOCC2)cc1`, -0.351.
Under `COC(=O)CSC1=C(C#N)C(=O)NC2(CCCCC2)S1` stands -0.388.
`CC(C)OC(=O)c1cccnc1SCc1cc(=O)n2ccccc2n1`: the z-score is -0.709.
Regarding `COC(=O)c1ccc(CSc2ncnc3c2sc2nc(N4CCOCC4)c4c(c23)CCCC4)o1`, the z-score was 0.723.
Under `C/C(=N/O)c1cc(C(C)(C)C)c(O)c(C(C)(C)C)c1` stands -0.256; under `C=CCOc1ccc(C2OC34CCCCC3C(C#N)(C#N)C2(C#N)C(=N)O4)cc1` (stereo unspecified), -0.0615; under `COC(C)(C)[C@]12CC(O)(C(C)C)ON1[C@H]1CCCCC1N2O` (stereo partly specified), 0.162.
The figure for `O=C(COC(=O)c1ccc(-c2nnc(-c3ccccc3)o2)cc1)c1ccccc1` is -0.145; for `CCOc1cc(NC(=O)c2cnccn2)c(OCC)cc1NC(=O)c1ccc(C)cc1` it is 0.0296; for `Cc1ccc(C(=O)Nc2sc3c(c2C#N)CCCCC3)cc1C` it is 0.0633.
The compound `COc1ccc(NC(=O)c2ccc(C#N)cc2)cc1NS(=O)(=O)c1ccc(F)cc1` had a z-score of -0.0767.
`CCC(C)n1nccc1NC(=O)C(C)OC(=O)c1cc2ccccc2[nH]1` (stereo unspecified): the z-score stood at 0.276.
The figure for `Cc1ccc(CNC(=O)c2cc3c(C)nc4ccccc4c3o2)cc1` is 0.19; for `COCCCNC(=S)NCCCNc1nc2cc3c(cc2cc1C#N)OCO3` it is -0.155; for `CCC(Oc1ccccc1)C(=O)Nc1ccsc1C(=O)OC` (stereo unspecified) it is -0.397.
Under `CCCN1CCN(C(=O)CCCNC(=O)Cn2cnc3sc(C)c(C)c3c2=O)CC1` stands 1.02; under `CCOC(=O)N1CCC(N2CC34C=CC(O3)C(C(=O)Nc3ccc(OCC)cc3)C4C2=O)CC1` (stereo unspecified), 1.09; under `c1coc(-c2nnc(SCc3nc4ccccc4[nH]3)o2)c1`, -0.511.
Take `Cc1cc(C)c(S(=O)(=O)N2CCN=C2c2ccccc2)cc1C`: the z-score is -0.209.
The figure for `CCCCc1ccc(N=N/C(C(=O)Nc2cc(OC)c(NC(C)=O)cc2OC)=C(/C)O)cc1` is 0.28; for `CC(C)SCCCCOc1ccc2ccccc2c1` it is -0.0609.
The figure for `CCCc1ccc(C(C)NC(=O)c2cnccn2)cc1` (stereo unspecified) is 0.069; for `CN(C(=O)CSc1nnnn1-c1ccccc1)C1CCCCC1` it is -0.933.
Under `Cn1c(SC/C=C/c2ccccc2)nnc1-c1cccs1` stands -0.0461.
For the compound `COC(=O)/C=C1/N/C(=N\c2nc(C)cc(C)n2)N(c2ccc(C)c(C)c2)C1=O`, the z-score was found to be 0.00026.
Take `O=C(CN1C2=NCCN2c2ccccc21)C12CC3CC(CC(C3)C1)C2`: the z-score came to 0.569.
Under `O=C(Cn1cccc1)N1CCN(c2ccc(F)cc2)CC1` stands -0.241; under `Clc1ccccc1CSc1nnc(-c2ccncc2)o1`, 0.342.
The figure for `CC1CCCCC1NC(=S)NC(=O)c1ccccc1Br` (stereo unspecified) is 0.799.
The figure for `COc1ccc(S(=O)(=O)N2CCN(C(=O)NC3CCCCC3)CC2)cc1OC` is 0.142.
As for `CCOC(=O)c1sc(NC(=S)NC(=O)c2cccc(Cl)c2)c(C(=O)OCC)c1C`, the z-score was 0.646.
Consider `Nc1c(Cl)cc(Cl)cc1C(=O)OCC(=O)N1CCCC1`, for which the z-score was -0.308.
The figure for `Cc1ccccc1NC1(C#N)C(=O)Nc2ccccc21` (stereo unspecified) is 0.00214; for `CCOC(=O)c1c(NC(=O)/C=C/c2ccc3c(c2)OCO3)sc(C)c1CC` it is 0.00149.
The figure for `COc1ccc2c(Cl)c(C(=O)NN)sc2c1` is 0.0612; for `CCC(=O)Nc1ccc(S(=O)(=O)Nc2cccnc2)cc1` it is 0.232; for `Cn1c(=O)c2c(nc(NCc3ccco3)n2C)n(C)c1=O` it is -0.268.
The figure for `CCOC(=O)c1ccc2c(c1)nc(-c1ccc(F)cc1)c1nccn12` is -0.0773.
Consider `COc1ccccc1C(=O)NCCn1cc(SCC(=O)Nc2cc(C)on2)c2ccccc21`, for which the z-score was -0.181.
Regarding `Nc1cccc2nc3ccccc3cc12`, the z-score came out at 0.335.
`CCc1nc2ccccc2c(C(=O)OCC(=O)Nc2cccc(S(=O)(=O)N3CCOCC3)c2)c1C` registered a z-score of -1.75.
Under `Cc1nc2[nH]c(=S)[nH]c2cc1Br` stands 0.114; under `Cc1nn(CC(=O)c2ccc(Cl)cc2Cl)c(C)[n+]1N`, 0.0687; under `Cc1cc(C)c2c(CC(=O)Nc3ccc(Cl)cn3)coc2c1`, -0.0231.
Under `Cc1ccc(S(=O)(=O)NC(CC(C)C)C(=O)NCc2ccco2)cc1` (stereo unspecified) stands 0.0163; under `Cc1cc(=O)[nH]c(SCc2nc3ncccn3c2Br)n1`, 0.27.
The compound `Cc1c(C)n(C)c2ccc(C(=O)Nc3cccc4ccccc34)cc12` displayed a z-score of 0.368.
Under `O=C(NCCNc1cc(Cl)ccc1[N+](=O)[O-])c1ccco1` stands -1.06; under `Cc1cc(C)nc(-n2nc(C)cc2NC(=O)CNCc2ccccc2)n1`, -0.571.
The figure for `CC(NC(=O)Cn1ncc(Cl)c(Cl)c1=O)C12CC3CC(CC(C3)C1)C2` (stereo unspecified) is -0.204.
Under `CCN(c1ccc(NC(=O)CSc2nnc3nc(C)cc(C)n23)cc1)C(C)C` stands -0.565; under `CC(C)c1nc(NCc2ccccc2)c(C#N)c2c1CCCC2`, -0.133; under `Cc1c(C(=O)NCCCc2ccccc2)cccc1[N+](=O)[O-]`, -0.434.
In turn, `c1ccc(-c2csc(Cc3nnc4n3CCCCC4)n2)cc1` had a z-score of 0.197.
The figure for `Cc1cccc(Cn2cnc3c(nnn3Cc3ccc(F)cc3)c2=O)c1` is 0.12; for `Cc1ccc(-n2ncc(C#N)c2/N=C/N2CCOCC2)cc1` it is -0.432.
Under `Cn1c(CN2CCCC2)nc2cc(NC(=O)COc3ccccc3)ccc21` stands 0.0972.
Under `CCSc1nc2ccccc2n1Cc1cccc([N+](=O)[O-])c1` stands -0.287; under `COCCN1C(=O)C(CC(=O)Nc2ccc(C(C)=O)cc2)SC1=Nc1ccccc1` (stereo unspecified), -0.776; under `Cn1c(=O)c2c(nc(NCC3CCCO3)n2Cc2ccccc2)n(C)c1=O` (stereo unspecified), 0.0853.
The compound `CCCOc1ccc(N2C(=O)CC(N3CCCC(C(=O)N4CCCC4)C3)C2=O)cc1` (stereo unspecified) showed a z-score of 0.778.
The figure for `O=C(c1ccc2c(c1)OCO2)N1CCN(C(=O)c2ccco2)CC1` is -0.43.
Under `COc1ccccc1/C=C/C(=O)NC(=S)Nc1ccc(S(=O)(=O)N(C)c2ccccc2)cc1` stands 0.119; under `Cc1nnc(NC(=O)C2(c3ccccc3)CCOCC2)s1`, -0.218.
The figure for `C(=N\N1CCN(C2c3ccccc3-c3ccccc32)CC1)/c1ccccn1` is -0.243; for `O=C(Oc1cccc2cccnc12)c1ccc(N2C(=O)C3C4CCC(C4)C3C2=O)cc1` (stereo unspecified) it is -0.0588; for `CNCc1ccccc1Sc1cccc2ccccc12` it is 1.05.
Compound `COc1ccccc1NC(=O)CC(NCc1ccccc1)C(=O)O` (stereo unspecified) had a z-score of 1.75.
Under `Cc1nc2c3cnn(-c4ccc(C)c(C)c4)c3ncn2n1` stands -0.107; under `Cc1cc(C)cc(OC(=O)CS(=O)c2ccc(C(F)(F)F)cc2[N+](=O)[O-])c1` (stereo unspecified), -0.247.
The compound `CCC(OC(=O)CCc1nc2ccccc2[nH]c1=O)C(=O)c1ccccc1` (stereo unspecified) had a z-score of -0.269.
The figure for `Cc1nc2c(sc3nc4c(cc32)COC(C)(C)C4)c(=O)n1CC(=O)NCc1ccco1` is -0.124; for `O=C(/C=C/c1ccc(Cl)cc1)Nc1ccc(CN2CCOCC2)cc1` it is -0.0212; for `COc1ccc(/C=C(/C(=O)Nc2ccccc2C(=O)NC(C)C)c2ccccc2)cc1` it is -0.486.
Under `CSc1ccccc1C(=O)Nc1cccc(C(C)O)c1` (stereo unspecified) stands 0.209; under `COc1ccc(NS(=O)(=O)c2cc([N+](=O)[O-])ccc2N/N=C\c2c(C)[nH]c3ccccc23)cc1`, 0.0262.
Under `Cc1ccc(NC(=O)CO/N=C(\N)c2nonc2N)cc1C` stands -0.037; under `Cc1nn(C)c(Cl)c1NC(=O)OCc1ccc(F)cc1`, -0.0466; under `O=C(C1CCCN(S(=O)(=O)c2cccc3nsnc23)C1)N1CCc2ccccc21` (stereo unspecified), -0.196.
Take `CCn1c(C)nc2cc(C(=O)N/N=C/c3ccc(OC)c(O)c3)ccc21`: the z-score amounted to 0.135.
`COc1ccc(OCC(=O)Nc2ccc3c(c2)nc2n3CCSC2)cc1` returned a z-score of -0.24.
The figure for `O=C(O)CCNS(=O)(=O)c1ccc2c(c1)Cc1ccccc1-2` is -0.564; for `CCC(=O)NCCC(c1ccco1)c1ccccc1OC` (stereo unspecified) it is -0.0301.
The figure for `O=[N+]([O-])c1ccc(Oc2ccc(F)cc2Br)c2ccncc12` is -0.634.
